Test [1] addresses zfGR (Danio rerio, UniProt Q1XHK0). Kind of test: Antagonistic activity assessment in presence of 3 nM dexamethasone, UMLN-zfGR cells. Format: cell-based, zebrafish.
Test [2] addresses T1, hGR (Homo sapiens, UniProt P04150).
T1 sequence (P04150 1-777): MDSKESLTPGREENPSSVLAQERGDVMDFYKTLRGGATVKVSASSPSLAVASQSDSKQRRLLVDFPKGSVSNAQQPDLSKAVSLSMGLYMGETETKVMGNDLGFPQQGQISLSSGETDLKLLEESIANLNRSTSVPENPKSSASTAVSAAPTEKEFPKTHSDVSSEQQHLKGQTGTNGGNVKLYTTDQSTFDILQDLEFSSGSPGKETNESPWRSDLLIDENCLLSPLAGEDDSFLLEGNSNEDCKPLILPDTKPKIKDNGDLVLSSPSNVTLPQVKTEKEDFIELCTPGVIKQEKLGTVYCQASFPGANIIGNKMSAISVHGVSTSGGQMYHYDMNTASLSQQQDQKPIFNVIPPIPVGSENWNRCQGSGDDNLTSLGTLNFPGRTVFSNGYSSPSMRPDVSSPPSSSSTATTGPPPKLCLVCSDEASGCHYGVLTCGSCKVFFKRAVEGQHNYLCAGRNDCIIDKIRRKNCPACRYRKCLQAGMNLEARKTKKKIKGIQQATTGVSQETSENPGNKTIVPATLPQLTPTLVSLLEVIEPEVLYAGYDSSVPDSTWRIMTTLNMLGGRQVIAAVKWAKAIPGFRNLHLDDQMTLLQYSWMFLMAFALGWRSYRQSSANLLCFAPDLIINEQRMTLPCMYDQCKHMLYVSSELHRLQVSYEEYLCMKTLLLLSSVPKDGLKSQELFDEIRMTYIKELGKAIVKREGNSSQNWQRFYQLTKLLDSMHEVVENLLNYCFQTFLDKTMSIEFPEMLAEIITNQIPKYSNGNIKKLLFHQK
The settings on record: HMLN-hGR; with 3 nM dexamethasone; % of maximal luciferase activity induced by 100 nM dexamethasone; at 10^-5M.

For the compound `CCOC1=CC2=C(C)CC3C(C(O)CC4(C)C3CC(C)C43OCOC34COCO4)C2(C)CC1` (stereo not drawn) [forbimenol], the IC50 (as a rule, the point on the concentration scale where inhibition reaches its midpoint) in test [1] (read-out: IC50) worked out at 3.16 µM.

Take `CC#C[C@]1(O)CC[C@H]2[C@@H]3CCC4=CC(=O)CCC4=C3[C@@H](c3ccc(N(C)C)cc3)C[C@@]21C` [mifepristone]: the “% min act (minimal activity)” value was determined as 30 ± 6% in test [1] (UMLN-zfGR, with 3 nM dexamethasone, % of maximal luciferase activity induced by 100 nM dexamethasone, at 10^-5M) and 11 ± 2% in test [2].

These data come from publication PMC10466050, “A comparative study of human and zebrafish glucocorticoid receptor activities of natural and pharmaceutical steroids” (Frontiers in Endocrinology, 2023).
